{"source": "a collection of fitness landscapes (doi:10.1016/j.celrep.2020.107928)", "parents": {"B1": {"name": "Caulobacter ParB omega fusion; a variant is named by its letters at X, in order, B8GW30 (parent)", "chain": "MESVVVGEPGMSEGRRGLGRGLSALLGEVDAAPAQAPGEQLGGSREAPIEILQRNPDQPRRTFREEDLEDLSNSIREKGVLQPILVRPSPDTAGEYQIVAGERAWRAAQRAGLKTVPIMVRELDDLAVLEIGIIENVQRADLNVLEEALSYKVLMEKFERTQENIAQTIGKSXSHVANXMRLLXLPDEVQSYLVSGELTAXHARAIAAAADPVALAKQIIEGGLSVRETEALARKAPNLSAGKSKGGRPPRVKDTDTQALESDLSSVLGLDVSIDHRGSTGTLTITYATLEQLDDLCNRLTRGI"}}, "note": "In all, about 81,000 sequences were measured (“one-hybrid fitness for binding NBS DNA”: median about -0.1, highest 2% from about 0.36 on). This is one part of the list.", "data": [{"variants_of": "B1", "assay": "one-hybrid fitness for binding NBS DNA (the Noc-binding site; scaled: cognate 1, non-cognate 0); higher = stronger binding", "details": "with NBS DNA site", "in_short": "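Caulobacter ParB libraries with four specificity codons randomised were screened by bacterial one-hybrid selection in the E. coli USO strain, using a HIS3 reporter whose site lies 19 bp from the promoter. Selection ran for 48 hours at 37°C on M9 lacking histidine, with 0.1 mM IPTG and 5 mM 3-AT. Plasmids were Illumina-sequenced before and after selection, three replicate libraries were pooled, and variants with under 10 reads were dropped. Fitness is the log change in each variant's read ratio to wild type, rescaled against the cognate and non-cognate sites.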", "values": [{"variant": "RVQI", "one-hybrid fitness for binding NBS DNA": "≤ 0.2"}, {"variant": "ALPR", "one-hybrid fitness for binding NBS DNA": "≤ 0.2"}, {"variant": "QMVQ", "one-hybrid fitness for binding NBS DNA": 0.283}, {"variant": "VDSW", "one-hybrid fitness for binding NBS DNA": "≤ 0.2"}, {"variant": "QCDS", "one-hybrid fitness for binding NBS DNA": 0.28}, {"variant": "KQDS", "one-hybrid fitness for binding NBS DNA": "≤ 0.2"}, {"variant": "QEQF", "one-hybrid fitness for binding NBS DNA": "≤ 0.2"}, {"variant": "RCWF", "one-hybrid fitness for binding NBS DNA": "≤ 0.2"}, {"variant": "YRRA", "one-hybrid fitness for binding NBS DNA": "≤ 0.2"}, {"variant": "ILNV", "one-hybrid fitness for binding NBS DNA": "≤ 0.2"}, {"variant": "QRII", "one-hybrid fitness for binding NBS DNA": "≤ 0.2"}, {"variant": "LTLF", "one-hybrid fitness for binding NBS DNA": "≤ 0.2"}, {"variant": "EDSS", "one-hybrid fitness for binding NBS DNA": "≤ 0.2"}, {"variant": "CLKA", "one-hybrid fitness for binding NBS DNA": "≤ 0.2"}, {"variant": "RIEK", "one-hybrid fitness for binding NBS DNA": "≤ 0.2"}, {"variant": "WHMG", "one-hybrid fitness for binding NBS DNA": "≤ 0.2"}, {"variant": "ATKA", "one-hybrid fitness for binding NBS DNA": "≤ 0.2"}, {"variant": "LPPT", "one-hybrid fitness for binding NBS DNA": "≤ 0.2"}, {"variant": "DLCL", "one-hybrid fitness for binding NBS DNA": "≤ 0.2"}, {"variant": "TNHK", "one-hybrid fitness for binding NBS DNA": "≤ 0.2"}, {"variant": "RAAH", "one-hybrid fitness for binding NBS DNA": "≤ 0.2"}, {"variant": "QSHP", "one-hybrid fitness for binding NBS DNA": "≤ 0.2"}, {"variant": "KYES", "one-hybrid fitness for binding NBS DNA": "≤ 0.2"}, {"variant": "LVSM", "one-hybrid fitness for binding NBS DNA": "≤ 0.2"}, {"variant": "LCVT", "one-hybrid fitness for binding NBS DNA": "≤ 0.2"}, {"variant": "HDSG", "one-hybrid fitness for binding NBS DNA": "≤ 0.2"}, {"variant": "YDDS", "one-hybrid fitness for binding NBS DNA": "≤ 0.2"}, {"variant": "STRA", "one-hybrid fitness for binding NBS DNA": "≤ 0.2"}, {"variant": "CMLC", "one-hybrid fitness for binding NBS DNA": "≤ 0.2"}, {"variant": "GMKS", "one-hybrid fitness for binding NBS DNA": "≤ 0.2"}, {"variant": "PKTE", "one-hybrid fitness for binding NBS DNA": "≤ 0.2"}, {"variant": "CSYS", "one-hybrid fitness for binding NBS DNA": "≤ 0.2"}, {"variant": "GHMT", "one-hybrid fitness for binding NBS DNA": "≤ 0.2"}, {"variant": "GYNT", "one-hybrid fitness for binding NBS DNA": "≤ 0.2"}, {"variant": "GKTD", "one-hybrid fitness for binding NBS DNA": "≤ 0.2"}, {"variant": "NNKC", "one-hybrid fitness for binding NBS DNA": "≤ 0.2"}, {"variant": "QPWL", "one-hybrid fitness for binding NBS DNA": "≤ 0.2"}, {"variant": "SRIF", "one-hybrid fitness for binding NBS DNA": "≤ 0.2"}, {"variant": "RGVS", "one-hybrid fitness for binding NBS DNA": "≤ 0.2"}, {"variant": "YCTN", "one-hybrid fitness for binding NBS DNA": "≤ 0.2"}, {"variant": "IYLM", "one-hybrid fitness for binding NBS DNA": "≤ 0.2"}, {"variant": "NTNM", "one-hybrid fitness for binding NBS DNA": "≤ 0.2"}, {"variant": "QDAR", "one-hybrid fitness for binding NBS DNA": "≤ 0.2"}, {"variant": "AYSF", "one-hybrid fitness for binding NBS DNA": "≤ 0.2"}, {"variant": "EEFP", "one-hybrid fitness for binding NBS DNA": "≤ 0.2"}, {"variant": "TCFL", "one-hybrid fitness for binding NBS DNA": "≤ 0.2"}, {"variant": "PNPV", "one-hybrid fitness for binding NBS DNA": "≤ 0.2"}, {"variant": "GGDV", "one-hybrid fitness for binding NBS DNA": "≤ 0.2"}, {"variant": "TVLT", "one-hybrid fitness for binding NBS DNA": "≤ 0.2"}, {"variant": "ICRS", "one-hybrid fitness for binding NBS DNA": "≤ 0.2"}, {"variant": "QMSS", "one-hybrid fitness for binding NBS DNA": 0.376}, {"variant": "DLIS", "one-hybrid fitness for binding NBS DNA": "≤ 0.2"}, {"variant": "WRDW", "one-hybrid fitness for binding NBS DNA": "≤ 0.2"}, {"variant": "WAPM", "one-hybrid fitness for binding NBS DNA": "≤ 0.2"}, {"variant": "ASDE", "one-hybrid fitness for binding NBS DNA": "≤ 0.2"}, {"variant": "LING", "one-hybrid fitness for binding NBS DNA": "≤ 0.2"}, {"variant": "GYEL", "one-hybrid fitness for binding NBS DNA": "≤ 0.2"}, {"variant": "GGMT", "one-hybrid fitness for binding NBS DNA": "≤ 0.2"}, {"variant": "ALML", "one-hybrid fitness for binding NBS DNA": "≤ 0.2"}, {"variant": "HQYG", "one-hybrid fitness for binding NBS DNA": "≤ 0.2"}, {"variant": "MDWC", "one-hybrid fitness for binding NBS DNA": "≤ 0.2"}, {"variant": "FWQR", "one-hybrid fitness for binding NBS DNA": 0.203}, {"variant": "ERSR", "one-hybrid fitness for binding NBS DNA": "≤ 0.2"}, {"variant": "SQIS", "one-hybrid fitness for binding NBS DNA": "≤ 0.2"}, {"variant": "KTEF", "one-hybrid fitness for binding NBS DNA": "≤ 0.2"}, {"variant": "HFIS", "one-hybrid fitness for binding NBS DNA": "≤ 0.2"}, {"variant": "RAKQ", "one-hybrid fitness for binding NBS DNA": "≤ 0.2"}, {"variant": "GPCD", "one-hybrid fitness for binding NBS DNA": "≤ 0.2"}, {"variant": "RMVM", "one-hybrid fitness for binding NBS DNA": "≤ 0.2"}, {"variant": "CIVG", "one-hybrid fitness for binding NBS DNA": "≤ 0.2"}, {"variant": "RAYE", "one-hybrid fitness for binding NBS DNA": "≤ 0.2"}, {"variant": "RPCG", "one-hybrid fitness for binding NBS DNA": "≤ 0.2"}, {"variant": "RKLV", "one-hybrid fitness for binding NBS DNA": "≤ 0.2"}, {"variant": "RCSD", "one-hybrid fitness for binding NBS DNA": "≤ 0.2"}, {"variant": "QMNF", "one-hybrid fitness for binding NBS DNA": "≤ 0.2"}, {"variant": "TSTW", "one-hybrid fitness for binding NBS DNA": "≤ 0.2"}, {"variant": "CRTC", "one-hybrid fitness for binding NBS DNA": "≤ 0.2"}, {"variant": "YSNN", "one-hybrid fitness for binding NBS DNA": "≤ 0.2"}, {"variant": "HYIA", "one-hybrid fitness for binding NBS DNA": "≤ 0.2"}, {"variant": "PGWS", "one-hybrid fitness for binding NBS DNA": "≤ 0.2"}, {"variant": "FSIP", "one-hybrid fitness for binding NBS DNA": "≤ 0.2"}, {"variant": "VMRV", "one-hybrid fitness for binding NBS DNA": "≤ 0.2"}, {"variant": "RYSA", "one-hybrid fitness for binding NBS DNA": "≤ 0.2"}, {"variant": "MSRL", "one-hybrid fitness for binding NBS DNA": "≤ 0.2"}]}]}
